# The campaign covered roughly 39,000 compounds. About 220 (0.56%) showed activity. This is one part of the list.
# Tested on: Escherichia coli K-12 BW25113
# Experiment: relative growth (OD600 normalised to plate interquartile mean) (fraction); higher = less growth inhibition, active = 0.2 or less
# Conditions: 50 µM; LB; incubation time: overnight (16-24 h)
# 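Further: static incubation at 37 °C against the wild-type strain, values averaged over two biological replicates.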
row,Compound,relative growth
1,C[C@H]1CN([C@@H](C)CO)C(=O)c2cc(NC(=O)Cc3cn(C)c4ccccc34)ccc2O[C@H]1CN(C)Cc1ccc(Cl)c(Cl)c1,inactive: 1.01
2,C[C@H](CO)N1C[C@H](C)[C@@H](CN(C)C(=O)Nc2ccc(F)cc2)Oc2c(NS(=O)(=O)c3cn(C)cn3)cccc2C1=O,inactive: 0.958
3,O=c1[nH]cnc2nc[nH]c12,inactive: 1.05
4,C[C@@H]1CN([C@H](C)CO)C(=O)c2cc(NC(=O)CCC(F)(F)F)ccc2O[C@@H](C)CCCCO[C@H]1CN(C)C(=O)Cc1ccccc1,inactive: 0.989
5,C[C@H](CO)N1C[C@H](C)[C@H](CN(C)S(=O)(=O)c2ccc(F)cc2)Oc2c(NS(=O)(=O)c3ccc(F)cc3)cccc2C1=O,inactive: 1.02
6,COc1ccc(NC(=O)N(C)C[C@@H]2OCCCC[C@@H](C)Oc3ccc(NS(=O)(=O)c4c(C)noc4C)cc3C(=O)N([C@H](C)CO)C[C@@H]2C)cc1,inactive: 0.992
7,C[N+](C)(C)CCCC[C@@H]1NC(=O)[C@@H]2C[C@H](C(=O)NCCCCCCNC(=O)CS)[C@H](c3ccc(O)cc3)N2C1=O,inactive: 1.02
8,C[C@@H]1CN([C@H](C)CO)C(=O)c2cccc(NC(=O)c3cnccn3)c2O[C@@H]1CN(C)C(=O)Nc1ccc(F)cc1,inactive: 0.949
9,Cc1ccc(CN(CCO)CCO)cc1,inactive: 1.01
10,C[C@@H]1CCCCO[C@H](CN(C)S(=O)(=O)c2cn(C)cn2)[C@H](C)CN([C@H](C)CO)C(=O)c2cc(NS(=O)(=O)c3ccccc3)ccc2O1,inactive: 0.984
11,C[C@@H]1CN([C@H](C)CO)C(=O)c2cc(-c3ccc(C(=O)N(C)C)cc3)cnc2O[C@@H]1CN(C)C(=O)c1cccnc1,inactive: 0.985
12,COc1ccc(S(=O)(=O)Nc2cccc3c2O[C@@H](CN(C)S(=O)(=O)c2ccccc2)[C@@H](C)CN([C@H](C)CO)C3=O)cc1,inactive: 1.02
13,COc1ccc(S(=O)(=O)Nc2ccc3c(c2)C(=O)N([C@H](C)CO)C[C@H](C)[C@H](CN(C)Cc2ccncc2)O3)cc1,inactive: 0.982
14,C[C@H](CO)N1C[C@H](C)[C@H](CN(C)S(=O)(=O)c2ccc(Cl)cc2)OCc2cnnn2CCCC1=O,inactive: 0.987
15,COc1ccc(CN(C)C[C@@H]2OCCCC[C@H](C)Oc3ccc(NC(=O)Cc4ccccc4)cc3C(=O)N([C@@H](C)CO)C[C@@H]2C)cc1,inactive: 1.01
16,C[C@@H]1CN([C@@H](C)CO)C(=O)c2cccc(NS(=O)(=O)c3ccccc3)c2O[C@@H]1CN(C)Cc1ccc(Cl)c(Cl)c1,inactive: 0.994
17,C[C@H](CO)N1C[C@H](C)[C@@H](CN(C)Cc2ccccc2)Oc2c(NC(=O)C3CCOCC3)cccc2C1=O,inactive: 1
18,C[C@@H]1CN([C@@H](C)CO)S(=O)(=O)c2ccc(C#Cc3cccc(F)c3)cc2O[C@@H]1CN(C)CC1CC1,inactive: 0.979
19,CCOc1nc2cccc(C(=O)O)c2n1Cc1ccc(-c2ccccc2-c2nnn[nH]2)cc1,inactive: 1.03

row,Compound,relative growth
1,Cc1noc(C)c1NC(=O)N(C)C[C@@H]1OCCCC[C@H](C)Oc2ccc(NC(=O)Nc3ccccc3)cc2C(=O)N([C@@H](C)CO)C[C@@H]1C,inactive: 0.989
2,C[C@@H]1CN([C@@H](C)CO)C(=O)c2cccc(NC(=O)Nc3ccc4c(c3)OCO4)c2O[C@H]1CN(C)Cc1ccc(C(=O)Nc2ccccc2N)cc1,inactive: 0.998
3,NNC(=O)c1c(O)c2c([nH]c1=O)CCCC2,inactive: 0.95
4,O=C1CSC(/N=C/c2ccccc2O)=NN1,inactive: 0.992
5,C[C@@H]1CN([C@H](C)CO)C(=O)c2cc(NC(=O)Nc3ccccc3)ccc2O[C@@H](C)CCCCO[C@@H]1CN(C)S(=O)(=O)c1cccs1,inactive: 1.04
6,C[C@H](CO)N1C[C@H](C)[C@H](CN(C)Cc2ccc3c(c2)OCO3)Oc2ccc(NC(=O)CCN3CCOCC3)cc2C1=O,inactive: 0.992
7,C[C@@H]1CCCCO[C@H](CN(C)Cc2ccccc2)[C@@H](C)CN([C@H](C)CO)C(=O)c2cc(NC(=O)CCC(F)(F)F)ccc2O1,inactive: 0.978
8,COc1ccc2c3c([nH]c2c1)[C@@H](CO)N(C[C@]13CCN(CC1)Cc1ccccc1)C(=O)CN1CCOCC1,inactive: 1.01
9,C[C@H](CO)N1C[C@H](C)[C@H](CN(C)S(C)(=O)=O)Oc2ccc(NS(=O)(=O)c3ccc(F)cc3)cc2CC1=O,inactive: 0.969
10,C[C@@H]1CN([C@@H](C)CO)C(=O)c2cc(NS(=O)(=O)c3ccc(Cl)cc3)ccc2O[C@H]1CN(C)C(=O)Nc1ccc(C(F)(F)F)cc1,inactive: 0.988
11,CC(C)CC#Cc1ccc2c(c1)O[C@H](CN(C)C(=O)c1ccccn1)[C@@H](C)CN([C@@H](C)CO)S2(=O)=O,inactive: 1.01
12,C[C@H](CO)N1C[C@H](C)[C@H](CN(C)C(=O)CN2CCOCC2)Oc2ncc(/C=C/c3ccccc3)cc2C1=O,inactive: 0.988
13,CN1C(=O)c2cc(NS(C)(=O)=O)ccc2OC[C@@H]2O[C@@H](CC(=O)N3CCOCC3)CC[C@H]21,inactive: 0.982
14,NNC(=O)c1cccc(C(F)(F)F)n1,inactive: 1
15,Cc1nnc(C(C)C)n1C1C[C@H]2CC[C@@H](C1)N2CC[C@H](NC(=O)C1CCC(F)(F)CC1)c1ccccc1 (stereo partly drawn),inactive: 0.999
16,C[C@@H]1CN([C@H](C)CO)C(=O)c2cccc(NC(=O)Nc3ccc4c(c3)OCO4)c2O[C@@H]1CN(C)S(=O)(=O)c1cn(C)cn1,inactive: 0.996
17,Cc1noc(C)c1NC(=O)N(C)C[C@@H]1OCCCC[C@@H](C)Oc2ccc(NC(=O)Nc3cccc4ccccc34)cc2C(=O)N([C@H](C)CO)C[C@@H]1C,inactive: 1.03
18,C[C@H]1CN([C@@H](C)CO)C(=O)c2cccc(NC(=O)NC3CCCCC3)c2O[C@@H]1CN(C)Cc1ccc(-c2ccccc2)cc1,inactive: 0.895
19,CC(C)NC(=O)Nc1ccc2c(c1)CC(=O)N([C@H](C)CO)C[C@@H](C)[C@@H](CN(C)S(=O)(=O)c1cccs1)O2,inactive: 1
